# Assay results taken from PubChem BioAssay AID588342 (National Center for Advancing Translational Sciences (NCATS), 2011).
# Hit rate of the full screen: of about 360,000 compounds, about 25,000 (6.9%) were called active. This list was built around the results that the source calls inconclusive (neither active nor inactive); the mix of calls is not that of the screen. Calls come from the whole dose curve; as a rule, active = well fitted inhibition curve with a large enough effect; inconclusive = small, poorly fitted or top-dose-only effect; inactive = flat fitted curve, though single readings scatter. Where the call is inconclusive, the potency comes from a doubtful curve fit.
# Molecular target: Luciferin 4-monooxygenase (Photinus pyralis) (UniProt P08659)
# Assay: qHTS profiling assay for firefly luciferase inhibitor/activator using purifed enzyme and Km concentrations of substrates (counterscreen for miR-21 project); note: nearly all actives have a fitted effect of over 55% in size
# Conditions: purified FLuc, luminescence inhibition; series mostly up to 57.5 µM
# Procedure, shortened: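 Biochemical qHTS of compounds, final roughly 60 µM downward over six points, against 10 nM purified firefly luciferase using Km concentrations of substrates (10 uM D-luciferin, 10 uM ATP) in Tris acetate pH 7.5 buffer; luminescence output.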
# Potency is the fitted concentration of half-maximal effect; tags give direction and shape of the fitted curve.
# Chain of UniProt P08659 (P08659 whole entry, looked up): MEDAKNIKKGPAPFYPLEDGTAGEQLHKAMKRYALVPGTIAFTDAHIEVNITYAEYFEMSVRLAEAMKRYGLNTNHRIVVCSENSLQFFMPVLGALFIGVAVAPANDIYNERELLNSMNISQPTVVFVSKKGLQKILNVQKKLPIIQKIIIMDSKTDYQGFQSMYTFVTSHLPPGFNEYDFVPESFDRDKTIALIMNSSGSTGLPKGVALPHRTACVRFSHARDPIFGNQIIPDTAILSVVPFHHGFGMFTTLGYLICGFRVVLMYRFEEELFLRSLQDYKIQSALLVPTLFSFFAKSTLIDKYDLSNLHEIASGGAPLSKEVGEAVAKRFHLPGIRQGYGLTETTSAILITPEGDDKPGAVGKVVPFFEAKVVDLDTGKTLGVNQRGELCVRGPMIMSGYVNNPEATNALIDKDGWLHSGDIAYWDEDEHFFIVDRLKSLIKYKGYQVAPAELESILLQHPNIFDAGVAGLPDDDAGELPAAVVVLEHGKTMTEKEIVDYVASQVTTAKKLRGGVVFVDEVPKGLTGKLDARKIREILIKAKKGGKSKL
row,Compound,Potency
1,CCOC(=O)CNC(=O)CN1C(=O)CC(c2ccco2)Sc2ccccc21 (stereo not given),"inconclusive: 37.9 µM [inhibitor, partial curve, poor fit]"
2,O=C(/C=C/Nc1ccc(F)cc1F)c1ccco1,active: 0.213 µM
3,COc1cc(NC(=O)c2cc(-c3ccc(Cl)c(Cl)c3)on2)cc(OC)c1OC,inactive
4,COc1cccc(C(=O)NNC(=O)c2ccc(NS(=O)(=O)c3cccs3)cc2)c1OC,"inconclusive: 26.9 µM [inhibitor, partial curve, poor fit]"
5,Oc1ccc(Cl)cc1-c1cc(-c2ccccc2Cl)[nH]n1,"inconclusive: 23.9 µM [inhibitor, single point]"
6,CCCOc1ccc(-c2csc3nc[nH]c(=O)c23)cc1,"inconclusive: 10.7 µM [inhibitor, partial curve, poor fit]"
7,O=C(O)Cn1cc(/C=c2/sc3nc4ccccc4n3c2=O)c2ccccc21,active: 10.7 µM
8,Cn1cc(Cl)c(C(=O)OCC(=O)c2ccccc2)n1,"inconclusive: 19 µM [inhibitor, single point]"
9,Cc1c(CNCCc2ccc(S(N)(=O)=O)cc2)c(C(=O)O)c(C)n1Cc1ccc(Cl)cc1,inactive
10,O=C(C[n+]1ccccc1)c1ccc(Cl)cc1,inactive
11,O=C(COC(=O)CNC(=O)C1CCCCC1)NCc1ccccc1,inactive
12,CCCCOC(=O)c1ccc(Nc2nc3ccccc3c3nnc(C)n23)cc1,"inconclusive: 10.7 µM [inhibitor, partial curve]"
13,O=C(CSCc1ccccc1)N=Nc1c(O)[nH]c2ccccc12,inactive
14,COC(OC)c1ccnc(-c2ccc(OC(=O)c3ccc(F)cc3)cc2)n1,"inconclusive: 33.8 µM [inhibitor, partial curve, poor fit]"
15,N/C(=N\OC(=O)c1ccco1)c1cccc([N+](=O)[O-])c1,active: 23.9 µM
16,CCOc1ccc(/C=C(\C#N)C(=O)Nc2sc3c(c2C(=O)OC)C(C(=O)OC)CC3)cc1OC (stereo not given),"inconclusive: 6.75 µM [inhibitor, partial curve, poor fit]"
17,COc1cc(/C=C/C(=O)c2ccc(O)cc2)ccc1OCC#N,"inconclusive: 21.3 µM [inhibitor, single point]"
18,O=C(Nc1ccc(Cl)cc1)OCc1cc(-c2ccccc2)on1,"inconclusive: 13.5 µM [inhibitor, partial curve, poor fit]"
19,Cc1cc(C(=O)COC(=O)CNC(=O)c2ccco2)c(C)n1Cc1ccco1,"inconclusive: 23.9 µM [inhibitor, single point]"
20,CC(C)(C)NC(=O)c1ccc2c(c1)C(=O)N(C1CCCCC1)C2=O,"inconclusive: 26.9 µM [inhibitor, partial curve, poor fit]"
21,CCC(C)Sc1cccc(-c2nc3ccc(Cl)cn3c2NCc2ccccc2)c1 (stereo not given),"inconclusive: 23.9 µM [inhibitor, partial curve, poor fit]"
22,COc1ccc(-c2cc(-c3n[nH]c(=S)n3-c3ccccc3Cl)[nH]n2)cc1,"inconclusive: 37.9 µM [inhibitor, partial curve, poor fit]"
23,Cc1nc2c(C(=O)NCCc3ccc(Cl)cc3)c[nH]n2c(=O)c1Cc1ccccc1F,"inconclusive: 37.9 µM [inhibitor, single point]"
24,O=C(CN1CCN(c2ccccc2)CC1)Nc1ccc2c(c1)CCC2,"inconclusive: 42.6 µM [inhibitor, partial curve, poor fit]"

row,Compound,Potency
1,CCOC(=O)/C(=N/Nc1ccccc1)c1csc(Nc2ccccc2)n1,"inconclusive: 23.9 µM [inhibitor, single point]"
2,O=C(Cc1ccsc1)NNC(=O)c1ccccc1O,"inconclusive: 37.9 µM [inhibitor, single point]"
3,Cc1ccc2nc(NS(=O)(=O)c3ccc(Cl)cc3)c(Nc3ccc(C(=O)O)cc3)nc2c1,active: 10.7 µM
4,COc1ccc(-c2csc(N3CCN(C(=O)c4ccco4)CC3)n2)cc1,"inconclusive: 26.9 µM [inhibitor, single point]"
5,CCC1(c2ccc(F)cc2)NC(=O)N(CC(=O)Nc2ccc(C)c(S(=O)(=O)N3CCOCC3)c2)C1=O (stereo not given),inactive
6,O=C(Nc1ccc2c(c1)OCO2)C(=O)c1c[nH]c2ccccc12,active: 0.675 µM
7,CC(=O)N(Cc1cccnc1)c1nc2c(C)cccc2s1,inactive
8,O=C(Cc1cccs1)Nc1ccccn1,inactive
9,Cc1cc(CC(C)C)n(-c2nc3ccccc3c(=O)n2OCc2ccccc2)n1,"inconclusive: 30.1 µM [inhibitor, partial curve, poor fit]"
10,CCc1nc2c(sc3nc4c(cc32)COC(C)(C)C4)c(=O)n1Cc1ccco1,"inconclusive: 30.1 µM [inhibitor, partial curve, poor fit]"
11,COc1ccc(S(=O)(=O)NCc2ccc3c(c2)CCN3C(=O)c2ccc(C)cc2)cc1Cl,inactive
12,CC1=C(C(=O)Nc2ccccc2C(=O)NC2CCCCC2)SCCO1,"inconclusive: 37.9 µM [inhibitor, partial curve, poor fit]"
13,O=C(/C=C/c1ccc(F)cc1)NCc1cccs1,"inconclusive: 23.9 µM [inhibitor, partial curve]"
14,O=C(CN(c1ccc(F)cc1)S(=O)(=O)c1ccccc1)Nc1ccccc1C(=O)O,"inconclusive: 30.1 µM [inhibitor, partial curve, poor fit]"
15,CC(C)C(NC(=O)c1ccc(F)cc1)C(=O)N1CCC1 (stereo not given),inactive
16,COc1cccc(OCc2cc(C(=O)N3CCN(C(C)=O)CC3)no2)c1,"inconclusive: 15.1 µM [inhibitor, partial curve]"
17,N#Cc1c(NC(=O)c2ccc(-c3ccccc3[N+](=O)[O-])o2)sc2c1CCCC2,active: 10.7 µM
18,Cc1ccc(-c2cc(C(=O)NC3=NCCS3)c3ccccc3n2)cc1C,active: 0.849 µM
19,COc1ccc(NC2=Nc3cccc4cccc2c34)cc1,active: 13.5 µM
20,COc1ccc(S(=O)(=O)Nc2ccc(-c3ccc4nncn4n3)cc2)c(OC)c1,inactive
21,Cc1ccc(S(=O)(=O)CCC(=O)OCC(=O)NC(C)c2ccccc2)cc1 (stereo not given),inactive
22,COC(=O)c1sccc1NC(=O)CC1C(=O)NCCN1C(=O)Nc1ccc(C(F)(F)F)cc1 (stereo not given),inactive
23,N#C/C(=C\c1ccccc1)C(=O)Nc1sc2c(c1C(N)=O)CCC2,"inconclusive: 2.13 µM [inhibitor, partial curve, poor fit]"
24,Cc1cn(-c2ccccc2)c(C)c1/C=N\Nc1nc(N2CCOCC2)nc(N2CCOCC2)n1,active: 19 µM

row,Compound,Potency
1,CCOc1ccc2[nH]c3c(N4CCN(c5ccccn5)CC4)ncnc3c2c1,"inconclusive: 21.3 µM [inhibitor, single point]"
2,CCN(CC)c1ccc(N)cc1S(=O)(=O)Nc1ccccc1OC,"inconclusive: 30.1 µM [inhibitor, partial curve, poor fit]"
3,CCOC(=O)c1oc2ccc(S(=O)(=O)n3nc(-c4cc(OC)cc(OC)c4)cc3N)cc2c1C,inactive
4,CC(=O)Nc1ccc(-n2c(CCC(=O)O)ccc2-c2ccc(C)cc2)cc1,"inconclusive: 16.9 µM [inhibitor, partial curve]"
5,CCN(CC)C(=O)c1cc2c(=O)n3ccccc3nc2s1,"inconclusive: 23.9 µM [inhibitor, partial curve]"
6,COC(=O)Cc1ccc(OCc2ccc(Cl)nc2)cc1,active: 15.1 µM
7,CC(=O)Nc1ccc(S(=O)(=O)Nc2nc3ccc([N+](=O)[O-])cc3s2)cc1,"inconclusive: 23.9 µM [inhibitor, partial curve, poor fit]"
8,CCN(CC)C(=O)c1ccc(COc2ccc(Cl)c(C)c2)o1,"inconclusive: 26.9 µM [inhibitor, single point]"
9,COc1ccccc1Nc1nc(N)nc(CSC(=S)N2CCOCC2)n1,"inconclusive: 16.9 µM [inhibitor, partial curve]"
10,CSc1nc2sc3c(c2c(=O)[nH]1)CCC(C)C3 (stereo not given),"inconclusive: 30.1 µM [inhibitor, single point]"
11,CCn1nccc1C(=O)Nc1ccc(C(=O)OC(C)C)cc1,active: 19 µM
12,COc1ccc(-c2cc(=O)oc3c(C)c(OCc4nn[nH]n4)ccc23)cc1,"inconclusive: 23.9 µM [inhibitor, partial curve, poor fit]"
13,CCOC(=O)C(Cc1ccc(O)cc1)NC(=O)CNC(=O)C(CC(C)C)NC(=O)OC(C)(C)C (stereo not given),inactive
14,O=C(NCCCN1CCOCC1)c1sc2cc(F)ccc2c1Cl,"inconclusive: 37.9 µM [inhibitor, partial curve, poor fit]"
15,O=C(NNc1ccnc2cc(Cl)ccc12)C1CCCCC1,inactive
16,O=C(CSc1ccccc1F)Nc1ccc(N2CCOCC2)cc1,"inconclusive: 23.9 µM [inhibitor, partial curve]"
17,Cc1ccc(NC(=O)N2CCN(c3nnc(C)c4c(C)n(-c5ccccc5)nc34)CC2)cc1Cl,"inconclusive: 42.6 µM [inhibitor, partial curve, poor fit]"
18,O=C(Nc1ccc(N2CCN(C(=O)c3ccccc3)CC2)cc1)c1ccc2c(c1)OCCO2,"inconclusive: 26.9 µM [inhibitor, single point]"
19,CCC(CO)Nc1ncnc2c1cnn2-c1ccc(C)cc1 (stereo not given),active: 3.38 µM
20,O=C(O)c1cc(-c2ccccc2)n(-c2ccc(Cl)cc2)n1,"inconclusive: 26.9 µM [inhibitor, single point]"
21,CCOC(=O)N1CCN(C(=O)CCSc2ccccc2)CC1,active: 16.9 µM
22,COc1ccccc1N(CC(=O)Nc1ccccc1F)S(C)(=O)=O,inactive
